Experimental data published in paper PMC7150769.
No constants are given. Whether binding was seen depends on the method and setting. Binding seen in cells or lysates may run through a third protein. Some entries that bind do so weakly or less than the wild type. Sequences can lack the tags named with a protein.

Sequences of proteins named here, by UniProt entry; tags and fusion partners are left off.
UniProt P16794: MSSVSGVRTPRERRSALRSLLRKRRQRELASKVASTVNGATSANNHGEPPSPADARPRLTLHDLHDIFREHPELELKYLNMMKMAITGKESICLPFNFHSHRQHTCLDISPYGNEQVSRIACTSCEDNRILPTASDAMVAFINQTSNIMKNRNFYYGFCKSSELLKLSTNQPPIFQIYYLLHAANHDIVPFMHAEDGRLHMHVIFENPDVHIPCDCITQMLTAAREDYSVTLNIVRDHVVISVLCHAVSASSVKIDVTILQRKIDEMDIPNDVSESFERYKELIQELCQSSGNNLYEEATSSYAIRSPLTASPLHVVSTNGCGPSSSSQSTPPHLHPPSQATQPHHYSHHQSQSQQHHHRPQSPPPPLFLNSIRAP

What was measured:
Experiment in all cases: co-IP
[1] = biological target: T1, VZV Orf27, Flag-tagged (pcDNA-Orf27-Flag) (varicella zoster virus (VZV), strain Oka) (UniProt Q4JQU8)
T1 sequence: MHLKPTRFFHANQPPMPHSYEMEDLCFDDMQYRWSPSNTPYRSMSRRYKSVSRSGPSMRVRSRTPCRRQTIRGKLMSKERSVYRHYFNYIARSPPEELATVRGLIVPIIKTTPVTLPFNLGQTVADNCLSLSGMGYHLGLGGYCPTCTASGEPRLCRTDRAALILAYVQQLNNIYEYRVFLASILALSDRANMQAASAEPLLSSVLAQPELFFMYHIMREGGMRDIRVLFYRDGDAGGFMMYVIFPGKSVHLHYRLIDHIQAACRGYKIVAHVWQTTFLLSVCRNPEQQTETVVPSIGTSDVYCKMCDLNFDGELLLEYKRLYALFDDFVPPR

[2] = biological target: HCMV pUL53, Flag-tagged (pcDNA-UL53-Flag) (human cytomegalovirus (HCMV)) (UniProt P16794)
[3] = biological target: T2, EBV BFLF2, Flag-tagged (pcDNA-BFLF2-Flag) (Epstein-Barr virus (EBV), strain B95-8) (UniProt P0CK47)
T2 sequence: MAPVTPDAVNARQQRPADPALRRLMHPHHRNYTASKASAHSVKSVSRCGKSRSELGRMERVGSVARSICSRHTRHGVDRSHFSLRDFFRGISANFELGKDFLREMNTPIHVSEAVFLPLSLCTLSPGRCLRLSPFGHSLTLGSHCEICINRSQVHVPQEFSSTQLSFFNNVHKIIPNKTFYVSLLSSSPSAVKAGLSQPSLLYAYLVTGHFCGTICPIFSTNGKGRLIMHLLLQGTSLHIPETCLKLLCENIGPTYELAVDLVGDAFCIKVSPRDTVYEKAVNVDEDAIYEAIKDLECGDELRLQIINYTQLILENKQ

B1: EBV BFRF1, HA-tagged (pcDNA-BFRF1-HA) (protein, UniProt P03185 1-336)
chain: MASPEERLLDELNNVIVSFLCDSGSLEVERCSGAHVFSRGSSQPLCTVKLRHGQIYHLEFVYKFLAFKLKNCNYPSSPVFVISNNGLATTLRCFLHEPSGLRSGQSGPCLGLSTDVDLPKNSIIMLGQDDFIKFKSPLVFPAELDLLKSMVVCRAYITEHRTTMQFLVFQAANAQKASRVMDMISDMSQQLSRSGQVEDTGARVTGGGGPRPGVTHSGCLGDSHVRGRGGWDLDNFSEAETEDEASYAPWRDKDSWSESEAAPWKKELVRHPIRRHRTRETRRMRGSHSRVEHVPPETRETVVGGAWRYSWRATPYLARVLAVTAVALLLMFLRWT
binding [1]: no binding
binding [2]: no binding
binding [3]: binds
